Assay results as given in PubChem BioAssay AID485313 (National Center for Advancing Translational Sciences (NCATS), 2010).
About 7,600 (2.4%) of roughly 320,000 compounds were called active. The shares of active, inactive and inconclusive entries below differ from those in the screen. The call rests on the fitted dose curve; in most records, active means well fitted activation curve with a large enough effect; inconclusive means small, poorly fitted or top-dose-only effect; inactive means no such curve, though single readings can be large or run the other way. Where the call is inconclusive, the potency comes from a doubtful curve fit.

experiment: qHTS Assay for NPC1 Promoter Activators; conditions: Huh7 NPC1 promoter luciferase reporter, 24 h; series mostly up to 9.22 µM; activation: at the top concentration; further: nearly all actives have a fitted effect of over 60% in size;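 on activation: reporter is driven by a mutant NPC1 promoter; % of control where 0% means no effect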
Summary of the method: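 Stable NPC1-promoter luciferase Huh7 line; cpd (DMSO) 24 h, 37 °C, 5% CO2; Amplite luciferase reagent 10 min RT; luminescence readout. qHTS format.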
Potency means the concentration at half of the fitted maximal effect; tags describe the fitted curve by direction and shape.

activation, inactive:
CC1(C)OC2OC(C(=O)N/N=C/c3ccccc3F)C3OC(C)(C)OC3C2O1 (stereo not drawn) -0.93%
Nc1cc(Cl)ccc1Oc1ccc2ccccc2c1 20.9%
O=C(Nc1ccccc1Cc1ccccc1)c1ccncc1 -4.69%
Cc1ccccc1C(N)c1ccncc1 (stereo not drawn) -4.65%
O=C(O)CNC(=O)c1ccccc1 1.91%
Cc1cccc(OCCC(=O)Nc2ccc(C)c(S(=O)(=O)N3CCCCC3)c2)c1 -5.72%
CCOc1ccc2nc(N3CCCC(C(=O)NCCCN4CCOCC4)C3)sc2c1 (stereo not drawn) 21.5%
COc1cccc(NC(=O)Nc2ccc(Cc3ccncc3)cc2)c1 -0.316%
O=C(COC(=O)/C=C/c1ccco1)Nc1cccc([N+](=O)[O-])c1 -3.27%
O=C(COc1ccccc1Cl)NCCCNC(=O)c1cccnc1 0.22%
O=C(NNC(=O)C1CCN(S(=O)(=O)c2ccccc2C(F)(F)F)CC1)c1ccccc1O -0.968%
O=C(/C=C/c1ccc(O)cc1)c1ccc(NC2=C(N3CCCCC3)C(=O)c3ccccc3C2=O)cc1 -34.9%
COc1cc(/C=C2/C(=O)NN(c3ccccc3)C2=O)cc(Br)c1O -3.77%
COc1cc(OC)cc(C(=O)N[C@H](C(=O)Nc2nc(-c3ccc(OC)c(OC)c3)cs2)C(C)C)c1 -8.74%
O=C(CCl)Nc1ccc(N2CCCCCC2)cc1 -12.6%
CCC1CCCCN1CCCNC(=O)c1ccc2c(c1)c(C)c(C)n2CC (stereo not drawn) 0.967%
Nc1c(C(=O)N/N=C/c2cccnc2)cnn1-c1ccccc1 16.7%
O=C(COC(=O)CNC(=O)c1ccc(Cl)c([N+](=O)[O-])c1)NC(=O)CN1CCCC1=O 0.465%
Cc1ccnc(NC(=O)C2CCN(S(=O)(=O)c3ccc(C)c(C)c3)CC2)c1 0.962%
C=CCNC(=S)NNc1nc2sc3c(c2c(=O)[nH]1)CC(C)(C)OC3 3.9%
COc1ccc(OCc2nnc(SCC(=O)c3c(N)n(C)c(=O)n(C)c3=O)n2-c2ccccc2F)cc1 -0.928%
CCn1c(=O)c(CCC(=O)N2CCN(c3ccccn3)CC2)c(C)c2c(C)nn(-c3cccc(C)c3)c21 -1.97%
COc1ccc(/C(N)=N/OC(=O)C2CCC(=O)N2S(=O)(=O)c2ccc(C)cc2)cc1 (stereo not drawn) -0.252%
Cc1ccccc1C(=O)N1CCN(c2ccc(NC(=S)NC(=O)c3cccs3)cc2)CC1 -8.13%
CCOC(=O)C(C)(C)N(Cc1ccc(Cl)cc1)S(=O)(=O)c1ccc(Cl)c([N+](=O)[O-])c1 0.478%

Potency, active:
Cc1ccc2oc(-c3ccccc3)nc2c1 1.12 µM
Fc1ccccc1OCCSc1nnnn1-c1ccccc1 2.51 µM
COC(=O)C1CCN(C(=O)/C=C/c2ccc3c(c2)OCO3)CC1 0.794 µM
COC(=O)c1ccc(/C=N/Nc2nc3ccccc3[nH]2)cc1 3.16 µM
O=C(CSc1nnc2ccccn12)c1ccccc1 3.55 µM
Fc1ccc2nc(N3CCCC3)sc2c1 2.24 µM
O=C(CNC(=O)c1cccs1)Nc1ccc2c(c1)OCCO2 1.26 µM
CS(=O)(=O)N1N=C(c2ccc(Br)cc2)CC1c1ccc2c(c1)OCO2 (stereo not drawn) 1.12 µM
Cc1ccc(NC(=O)C(=O)NC2CCCCC2)cc1 1.58 µM
O=C(Nc1ccccc1)c1ccc2c(c1)OCCCO2 0.501 µM
COc1ccc(Nc2nc(-c3ccc(OC)cc3)cs2)cc1 3.16 µM
Cc1cc2sc(NC(=O)c3ccco3)nc2cc1Cl 1.41 µM
Cc1cccc(NC(=O)COc2ccc(Br)cc2C)n1 2.82 µM
O=C(NCCc1ccccc1)Nc1ccc(Cl)cc1 2.51 µM
Cc1ccc2nc(-c3ccc(NC(=O)CSCC(=O)O)cc3)sc2c1 3.98 µM
Cc1cc(C)n(-c2ccc(C(=O)Nc3ccccn3)cc2)n1 0.891 µM
C/C(=N\Nc1ccccn1)c1cccs1 3.55 µM
O=C(c1cc(-c2ccc(Cl)cc2Cl)on1)N1CCCC1 0.891 µM
N#Cc1ccc(C(=O)NC2CCCCCCC2)cc1 1.78 µM

Potency, inconclusive:
CC(C)Cc1cc(C(=O)NCc2ccco2)no1 3.55 µM [activator, partial curve]
Cc1cc2c(C)nc(-c3ccccc3)nc2o1 2.82 µM [activator, partial curve]
CCOC(=O)c1nn(-c2ccc(C)c(C)c2)cc1O 2.82 µM [activator, partial curve]
CCN1CCN(c2ccc(NC(=O)c3cnccn3)cc2)CC1 2.82 µM [activator, partial curve]
Cc1csc(SCC(=O)Nc2sccc2C#N)n1 0.355 µM [activator, partial curve]
O=C(Nc1ccc(NC(=O)c2ccccc2F)cc1)c1cccs1 2.82 µM [activator, partial curve]
Cc1cc(C(=O)CSc2nnnn2C)c(C)n1C1CC1 3.55 µM [activator, partial curve]
CCC(=O)Nc1cccc(NC(=S)NC(=O)c2ccc(Cl)cc2Cl)c1 3.16 µM [activator, partial curve]
Nc1cccn2c(-c3ccc(Cl)c(Cl)c3)cnc12 3.98 µM [activator, single point]
CCOc1ccc(OCc2ccc(C(=O)N(CC)CC)cc2)cc1 3.16 µM [activator, partial curve]
N#CC1=C2SC=C(c3ccc(Br)cc3)N2CCCC1=O 1.41 µM [activator, partial curve]
Cc1ccc(Nc2ncnc3ccccc23)cc1 2.51 µM [activator, partial curve]
COc1cccc2[nH]c(C(=O)NCCc3ccccc3)cc12 5.62 µM [activator, single point]
Cc1nnc(NC(=O)c2ccc(N3CCCC3=O)cc2)s1 3.55 µM [activator, partial curve]
O=[N+]([O-])c1ccc(/C=C/c2ccc3cccc(O)c3n2)cc1 3.98 µM [activator, single point]
Oc1ccc(N2CCN(C(=S)NCCc3ccccc3)CC2)cc1 3.16 µM [activator, single point]
O=C1CCN(CCc2ccccc2)CCN1CCSc1ccccc1 4.47 µM [activator, single point]
O=C(Cn1nnc(-c2ccc3c(c2)OCO3)n1)Nc1ccccc1C(=O)O 3.16 µM [activator, single point]
CC(=O)c1ccc(NC(=O)CN(c2c(C)cccc2C)S(C)(=O)=O)cc1 5.62 µM [activator, single point]
COC(=O)Nc1nnc(/C=C/c2ccc(OC)cc2)s1 3.55 µM [activator, single point]
Cc1ccc(OCc2ccc(C(=O)NN)o2)cc1C 1.78 µM [activator, partial curve]
CCCCCc1nc2c(=O)[nH]c3ccccc3c2o1 3.16 µM [activator, single point]
COc1ccc2cc3cc(C(=O)NC(C)C)oc3nc2c1 2.82 µM [activator, partial curve]
CC(=NC1CCCC1)c1c(C)[nH]n(-c2nc3ccccc3s2)c1=O 0.0001 µM [activator, partial curve]
Cc1ccccc1-c1nnc(SCc2ccc(F)cc2)o1 2.82 µM [activator, partial curve]
CNC(=S)N1CCN(c2nc3ccccc3s2)CC1 3.55 µM [activator, partial curve]
Cc1ccc(-c2cnc(-c3ccncc3)o2)cc1 5.62 µM [activator, single point]
CC(C)Sc1ccc(C(=O)Nc2ccc(F)cc2F)cn1 3.16 µM [activator, single point]
O=C(/C=C/c1ccc(Cl)c(Cl)c1)N1CCOCC1 3.55 µM [activator, single point]
COc1ccc(OC)c(/C=C/C(=O)NC2=NCCS2)c1 2.82 µM [activator, single point]
CCC1CCc2c(sc(NC(=O)c3ccco3)c2C(N)=O)C1 (stereo not drawn) 5.62 µM [activator, single point]
CC1=NN(C(N)=S)C(=O)C1N=Nc1cccc(Cl)c1 (stereo not drawn) 3.16 µM [activator, single point]
O=C(Cc1ccc(Br)cc1)N1CCCCCC1 3.98 µM [activator, partial curve]
CC(=O)NC(CCCN1C(=O)c2ccccc2C1=O)c1nnn(C)n1 (stereo not drawn) 1 µM [activator, single point]
COC(=O)c1ccc(Nc2ncnc3sccc23)cc1 3.55 µM [activator, single point]
O=C(Nc1ccc(Br)cc1)c1cnccn1 2 µM [activator, partial curve]
Cc1ccc(OCc2nc(-c3ccccc3)no2)cc1 3.16 µM [activator, partial curve]
CCCCOc1ccc(CSc2ncn[nH]2)cc1 3.98 µM [activator, partial curve]
CNC(=O)c1cc2c(cn1)[nH]c1ccccc12 13 µM [activator, partial curve]
